# Data taken from paper PMC9574860, “Chemical Toolkit for PARK7: Potent, Selective, and High-Throughput” (Journal of Medicinal Chemistry, 2022).
# About 400 (5.1%) of roughly 7,900 compounds showed an effect of 50% or more. The list shows a part of the results.
# Molecular target: Parkinson's disease protein 7 (PARK7/DJ1) (human, UniProt Q99497)
# Assay: primary screen, percent inhibition; read as competition with a fluorescent probe by fluorescence polarization; higher = more effect of the substance
# Conditions: 100 µM
# Summary of the method: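 Covalent fragments at 100 μM final were incubated 2 h with 0.2 μM PARK7, then 20 nM probe JYQ-107 added for a further 2 h. Fluorescence polarization read at 480/520 nm; relative FP loss versus reference controls gave remaining enzyme activity.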
# Parkinson's disease protein 7 (PARK7/DJ1), sequence (Q99497 whole entry, looked up): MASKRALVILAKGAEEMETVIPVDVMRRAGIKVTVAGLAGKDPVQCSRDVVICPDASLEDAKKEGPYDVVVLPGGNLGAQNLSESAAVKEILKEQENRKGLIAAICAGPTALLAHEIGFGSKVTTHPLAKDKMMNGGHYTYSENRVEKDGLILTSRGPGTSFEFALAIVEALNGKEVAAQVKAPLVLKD
row,SMILES,Inhibition % [%]
1,C=CC(=O)N1CC[C@@H](Oc2cccc(Cl)c2)C1,3.35
2,O=C(Oc1cccc2cccnc12)N1CCCCC1,7.91
3,OB(O)c1ccc(OCC2CCOC2)cc1 (stereo not drawn),8.08
4,CS(=O)(=O)OC1CCN(Cc2ccccc2)C1 (stereo not drawn),6.92
5,Cc1nccn1S(=O)(=O)c1cc(Cl)ccc1Cl,4.34
6,Cc1cc(C)n(S(=O)(=O)c2cccc(Cl)c2Cl)n1,2.67
7,O=C(CCl)Nc1cc(F)ccc1C(=O)O,32.7
8,O=C(CCl)c1ccns1,95.1
9,O=c1c2ccccc2nc(S)n1CCCOC1CCOC1 (stereo not drawn),6.16
10,C=CC(=O)Nc1ccnn1CC1CCOC1 (stereo not drawn),6.69
11,N#Cc1nc(NCCc2csc(=O)[nH]2)ccc1C(F)(F)F,13.7
12,O=C(CCl)N1N=C(c2ccco2)CC1c1ccco1 (stereo not drawn),9.04
13,Clc1ccc(Cl)c(OCC2CO2)c1 (stereo not drawn),5.37
14,CNc1nc(S)nc2ccccc12,3.7
15,O=S(=O)(F)c1cccc(Br)c1,16.4
16,C=CC(=O)Nc1cccc(NC(C)=O)n1,-0.654
17,C=CC(=O)NC1(C)CCC(C)(C)CC1,3.82
18,C=CC(=O)N1CCN(c2cnn(C)c2)C(=O)C1,7.82
19,CNc1ncc(B2OC(C)(C)C(C)(C)O2)cn1,1.74
20,N#Cc1cccc(C2(NC(=O)[C@@H]3CNC(=O)O3)CC2)c1,6.29
21,CC1CC(Sc2ccccc2F)C(=O)O1 (stereo not drawn),-0.183

row,SMILES,Inhibition % [%]
1,C=CC(=O)N1CC(CN2CCOCC2)C1,8.95
2,CC1(C)OB(c2ccc(C#N)c(Cl)c2)OC1(C)C,26.1
3,O=C(CCl)c1ccc2[nH]c(=O)oc2c1,2.68
4,O=C(CCl)NC(=O)c1ccco1,22.8
5,N#CC(C(=O)CCl)=C(c1ccc(F)cc1)N1CCOCC1,3.9
6,CCOc1ccc(S(=O)(=O)n2nc(C)cc2C)cc1C,7.03
7,CC1CC1c1ccc(C=CC(=O)N2CCNC(=O)C2)o1 (stereo not drawn),-1.45
8,COCc1ccc(CNC(=O)CCl)cc1,6.87
9,COc1ccc(S(=O)(=O)n2nc(C)cc2C)cc1C,5.55
10,C=CC(=O)NCC1CCCC(F)C1 (stereo not drawn),4.98
11,CC1CC(Sc2ncnc3ccccc23)C(=O)O1 (stereo not drawn),4.79
12,O=C(CCl)c1ccc2[nH]c(=O)[nH]c2c1,63.2
13,C=CC(=O)N1CCC(c2cccc(Cl)c2)C1 (stereo not drawn),10.2
14,C=CC(=O)Nc1ccccc1CN1CCSCC1,10.9
15,CN(C)c1cccc(C2CCCN2C2CCOC2=O)c1 (stereo not drawn),3.13
16,C=CC(=O)Nc1ccc2c(C)n(C)nc2c1,22.4
17,C=CC(=O)N1CC2C3COCC3C2C1 (stereo not drawn),10.7
18,O=C(CCl)NC(=O)Nc1ccc2c(c1)OCCCO2,7.15
19,C=C(C)Cn1c(-c2ccccn2)noc1=O,5.56
20,O=c1cc(CS)nc2ccccn12,17.8
21,C=CC(=O)NCc1cc2n(n1)CCCC2,10.1

row,SMILES,Inhibition % [%]
1,N#CC(=Cc1cccnc1)c1ccccn1,38.4
2,C=CC(=O)N1CCSC(C)(C)CC1,11.7
3,O=C1CC(c2ccccc2)S(=O)(=O)N1 (stereo not drawn),5.4
4,O=C(CN1CCSC1=O)Nc1ccc(Cl)c(Cl)c1,0.617
5,C=CC(=O)N1CC(=O)N(C(C)C)C(C)(C)C1,10.9
6,CC1(C)OB(c2csc(C(F)(F)F)n2)OC1(C)C,5.39
7,C[C@@H]1C[C@@H](OS(C)(=O)=O)CCO1 (racemic),18.4
8,CCSc1cccnc1C#N,7.64
9,CC1CC(SC(C)C(C)O)C(=O)O1 (stereo not drawn),3.91
10,Cc1cccc(OCC(=O)Nc2ccc(S(=O)(=O)F)cc2)c1,9.17
11,CC1CN(C(=O)C=Cc2nc3ccccc3o2)CCO1 (stereo not drawn),16.4
12,CCOC(=O)C1CCN(C(=O)CCl)CC1,19.7
13,O=C1OCCC1Nc1ccc2c(c1)CCCO2 (stereo not drawn),28.6
14,COc1cc(C=C(C#N)C(N)=S)ccc1O,1.24
15,O=S(=O)(F)c1ccc(-c2cn(CC3CC(F)(F)C3)nn2)cc1,2.81
16,C=CC(=O)N1CCCC2(C1)OCc1ccccc12 (stereo not drawn),6.47
17,C=CC(=O)NCC(O)c1cc2ccccc2s1 (stereo not drawn),7.61
18,O=C(O)Cn1nc(-c2cccs2)oc1=O,2.32
19,C=CC(=O)NC(C)c1c(C)noc1C (stereo not drawn),11.1
20,O=C(CCl)N1CCN(S(=O)(=O)Cc2ccccc2)CC1,13.1
21,Nc1cccnc1S(=O)(=O)F,81.4
